Measured values taken from the BET-seq Pho4 binding data (Le et al. 2018).
The list shows a part of the results. Values were computed here from the reads of four pooled replicates and scatter widely.

These sequences were tested against T1, Pho4 (S. cerevisiae) (UniProt P07270) (assay: relative binding free energy (BET-seq); higher = weaker binding). Details: reference: library average.
T1 sequence: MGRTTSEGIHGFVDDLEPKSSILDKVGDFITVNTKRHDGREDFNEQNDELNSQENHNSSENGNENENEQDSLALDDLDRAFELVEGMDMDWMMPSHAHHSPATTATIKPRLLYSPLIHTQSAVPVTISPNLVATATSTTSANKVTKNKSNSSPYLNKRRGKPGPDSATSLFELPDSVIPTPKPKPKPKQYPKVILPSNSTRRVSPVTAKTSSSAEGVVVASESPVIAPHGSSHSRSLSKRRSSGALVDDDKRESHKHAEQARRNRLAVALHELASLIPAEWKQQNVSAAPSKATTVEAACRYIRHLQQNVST

Row | Sequence | relative binding free energy [kcal/mol]
1 | GTTCTCACGTGGATTT | 0.32
2 | AGGAGCACGTGTAAGG | 0.08
3 | GAAGGCACGTGGGTTG | -0.25
4 | CCTTGCACGTGTTAGG | 0.14
5 | TAAGGCACGTGCAGGG | -0.12
6 | TGTTTCACGTGAGTTG | 0.35
7 | AATAGCACGTGTCTGG | -0.11
8 | AAAAGCACGTGGGTAA | -0.14
9 | TCGGGCACGTGGATTA | -0.03
10 | TTTCGCACGTGGTGCT | -0.2
11 | TTCTTCACGTGACGGG | 0.34
12 | AGATTCACGTGCTTGT | 0.24
13 | AGGTTCACGTGGTTAA | 0.19
14 | TTTGCCACGTGGTAGA | -0.24
15 | GAGTGCACGTGTAGCG | 0.02
16 | AAGGTCACGTGGGCTG | -0.03
17 | GTTGGCACGTGCCGGG | -0.15
18 | GGAATCACGTGGGGAG | 0.07
19 | TTCTACACGTGTTAAT | 0.2
20 | GGTAGCACGTGTTATA | -0.03
21 | GGTGGCACGTGTCAGC | 0.01
22 | TTGTTCACGTGTACGT | 0.35
23 | TGGTCCACGTGTGCTA | 0.07
24 | TCAAGCACGTGTGTAA | 0.1
25 | TGTAGCACGTGTGGAA | 0

Row | Sequence | relative binding free energy [kcal/mol]
26 | TTATTCACGTGGTCTG | 0.09
27 | TTTAACACGTGTACGT | 0.01
28 | ATGACCACGTGTTTTG | 0.04
29 | TGGAGCACGTGAAATT | 0.42
30 | TGACGCACGTGGGCTG | -0.12
31 | TTGTGCACGTGCGGAA | -0.03
32 | TAAAGCACGTGGTTGT | -0.1
33 | GGGACCACGTGTGTGG | 0.08
34 | GTAATCACGTGGCAGT | 0.1
35 | TGACGCACGTGTTGAA | 0
36 | GCGGGCACGTGGTCGG | -0.22
37 | TACAGCACGTGGTAGG | -0.19
38 | TGCGACACGTGAAGTG | 0.36
39 | TGATGCACGTGGTGTA | -0.09
40 | GATAGCACGTGGGTGA | -0.19
41 | TGGCGCACGTGACTTG | 0.21
42 | GGACTCACGTGGTGCG | 0.17
43 | ATGTACACGTGGGTAT | -0.11
44 | TCTGGCACGTGGTGGT | -0.15
45 | TTAGCCACGTGTGCTT | 0.01
46 | CTTGCCACGTGAGGGT | 0
47 | TGAAGCACGTGGTGTA | -0.11
48 | CCGTGCACGTGAGGGG | 0.17
49 | CTTAGCACGTGTGGAG | 0.07
50 | TGATACACGTGCGGAT | 0.08

Row | Sequence | relative binding free energy [kcal/mol]
51 | GGAAGCACGTGCGGTG | -0.23
52 | TGGAGCACGTGATGTT | 0.1
53 | GTTAGCACGTGTGCTG | -0.04
54 | ATATACACGTGTATTA | 0.02
55 | TGCGGCACGTGAGTGT | 0.02
56 | TGGAGCACGTGGTAAG | -0.18
57 | TGAAGCACGTGGGGTT | -0.23
58 | CAGGTCACGTGGGGTA | -0.1
59 | TTTAACACGTGAGGTG | 0.35
60 | AATGGCACGTGTCGTT | -0.09
61 | GGTGTCACGTGTGATT | 0.23
62 | TTGATCACGTGAAGTG | 0.37
63 | AGGATCACGTGACTTG | 0.32
64 | TGCGACACGTGGTGCG | -0.11
65 | GGGAACACGTGTAATG | 0.15
66 | GGAGACACGTGTTGGA | -0.03
67 | TATAACACGTGTAGGC | 0.05
68 | TGGGGCACGTGGGAAC | -0.07
69 | AATGACACGTGGGGAT | -0.24
70 | CTATCCACGTGTGGGG | 0.01
71 | TCGGTCACGTGATGGA | 0.23
72 | TTAGTCACGTGTGGAC | 0.18
73 | AGTTGCACGTGGGCGT | -0.08
